Results: paper PMC12040169 (PLOS Biology, 2025)
Some of the results follow.

These compounds were tested on T1, C. trachomatis L2/434/Bu expressing GFP (CTL2-GFP). Details: total inclusion area; 28.5 h, 10 µM; inhibitor.
T1 construct: L2/434/Bu GFP intracellular growth in HeLa cells
Parameters: species or system HeLa; C. trachomatis total inclusion area by high-content imaging, normalised to DMSO
Summary of the method: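 Following bulk GFP and resorufin fluorescence reads, infected cells were fixed, Hoechst-stained and imaged on a high-content platform. Inclusion total area and number per well served as growth proxies; nuclei counts indicated host viability. MICs were derived as for the fluorescence assay.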

| SMILES | % of control remaining |
| --- | --- |
| O=c1[nH]c(=O)c2cc(S(=O)(=O)NCC3CCN(Cc4ccccc4)C3)ccc2[nH]1 (stereo not shown) [CBK286384] | 121.552 |
| CC1CC1C(=O)N1CCCC(c2nn(C)c3ncccc23)C1 (stereo not shown) [CBK282167] | 91.771 |
| CCc1nn(CC(=O)N2CCCC2)c(=O)c2cc3occc3n12 [CBK283748] | 78.9801 |
| O=c1[nH]c2ncc(-c3cncc4ccccc34)nc2n1CCCO [CBK064814] | 73.3097 |
| CC(C)(C)OC(=O)N1CCC(Oc2nccnc2OCc2ccc(Cl)cc2F)CC1 [CBK163968] | 54.6284 |
| O=c1ccc2ccc(-c3ccsc3)nc2[nH]1 [CBK073710] | 100.191 |
| CNC(=O)C1CCCCN1C(=O)c1cn(CCOC)c2ccccc12 (stereo not shown) [CBK306308] | 69.1105 |
| CCn1nc(NC(=O)C2Cc3ccccc3CN2C)cc1C (stereo not shown) [CBK282133] | 112.532 |
| CC(=O)Nc1ccc(/N=C/c2ccc(Cl)cc2)cc1 [CBK015166] | 73.5521 |
| CCc1c(C(=O)NC2CCCOC2)[nH]c2ccc(F)cc12 (stereo not shown) [CBK283115] | 89.3593 |
| CC(C)[C@H]1CN(Cc2ccco2)CCN1Cc1ccco1 [CBK284271] | 94.6733 |
| CC(=O)Nc1cccc(CN2CCCC(CO)C2)c1 (stereo not shown) [CBK305527] | 87.3875 |
| CC1CCC(N(CCCN)Cc2ccco2)CC1C (stereo not shown) [CBK268947] | 94.2404 |
| CCCS(=O)(=O)NC1CC(C)(C)Cc2c1cnn2-c1ccccc1 (stereo not shown) [CBK307265] | 90.5465 |
| COCOc1ccc(-c2nccnc2OC)cc1 [CBK106914] | 93.2906 |
| CCc1nc2c(Oc3nc4ccccc4s3)cccn2c1N(C)C(=O)C(C)C [CBK147765] | 76.4374 |
| COc1cc2c(cc1OC)C1=NNC(=O)C1=NC(C)(C)C2 [CBK288353] | 1.154 |
| O=C(c1cc(S(=O)(=O)N2CCOCC2)ccc1Cl)N1CCCC(CO)C1 (stereo not shown) [CBK304236] | 68.1114 |
| Cc1c(-c2cc(C(F)F)n3nc(CCC(=O)O)nc3n2)cnn1C [CBK286888] | 111.253 |
| C(=C\c1nccnc1OCCc1c[nH]c2ccccc12)/c1ccccc1 [CBK106872] | 97.7882 |
| CCN(CC)c1ccc(C(=O)CN2CCN(c3nccnc3OCCN3CCOCC3)CC2)cc1 [CBK082898T] | 88.9094 |
| CC(=O)c1cccc(NC(=O)N(CCO)C2CCc3ccccc32)c1 (stereo not shown) [CBK305517] | 21.2451 |
| COc1ccc(Sc2cc(C(F)(F)F)ccn2)cc1OC [CBK093762] | 87.6492 |
| COc1ccc(-c2c[nH]c([C@@H]3COCCN3Cc3cccc(C#N)c3)n2)cc1 [CBK289298] | 111.929 |
| O=C(CN1C(=O)c2ccccc2C1=O)Nc1sc2c(c1C(=O)NCc1ccco1)CCCC2 [CBK265670] | 98.9635 |
| Cc1ccc(C(=O)N2CN(C(=O)CN3CCOCC3)CC(C)(C)C2)cc1 [CBK039190] | 150.823 |

| SMILES | % of control remaining |
| --- | --- |
| Cc1cc(C)n(CCNC(=O)c2ncoc2-c2ccc(F)cc2)n1 [CBK282356] | 61.5395 |
| Cc1noc(NS(=O)(=O)c2ccc(NC(=O)/C=C/c3ccc(C(C)C)cc3)cc2)c1C [CBK265430] | 31.9524 |
| CC(C)c1nsc(NS(=O)(=O)Cc2ccccc2)n1 [CBK051188] | 79.7694 |
| O=[N+]([O-])c1ccc(S(=O)(=O)NCCSCc2cccc(Cl)c2)cc1 [CBK268066] | 104.464 |
| O=C(O)CCC(=O)N1CCCC2(CCN(Cc3ccccc3)C2)C1 (stereo not shown) [CBK136890] | 101.179 |
| Cc1cc2occ(CC(=O)NCc3ccccn3)c2c(C)c1Cl [CBK269175] | 94.3141 |
| CCc1nc2ccc(C(=O)N3CCN(c4ccccc4)CC3)cn2c1N(C)Cc1ccc(OC)cc1 [CBK145584] | 102.22 |
| O=C(COc1ccc(I)cc1)Nc1cccnc1 [CBK263430] | 105.977 |
| O=C(O)c1cccc(NC(=O)c2cccc(S(=O)(=O)N3CCc4ccccc4C3)c2)c1 [CBK265187] | 96.0446 |
| Cn1cc(CN2C3CCC(C3)[C@@H]2COc2ccc(F)cc2)cn1 (stereo partly shown) [CBK282257] | 94.8543 |
| O=C(NCc1ccc(Cl)cc1)c1cnc(-c2cccc(C(F)(F)F)c2)c(-c2ccncc2)c1 [CBK037607] | 111.641 |
| CCC1(O)C(C)C(c2ccc(Cl)cc2)NC(c2ccc(Cl)cc2)C1C (stereo not shown) [CBK025376C] | 75.9126 |
| N#Cc1c(N)nc2c(c1-c1ccc(Cl)cc1)CCCCCCCCCC2 [CBK262322] | 102.559 |
| CN(C(=O)c1cc[nH]n1)C1CCN(c2ncnc3ccccc23)CC1 [CBK305916] | 82.9094 |
| COc1ccc(N2CCN(c3nc(NCCO)nc(N4CCOCC4)n3)CC2)cc1 [CBK265413] | 98.1811 |
| COc1ccc(-c2cc(-c3nnc(S)n3-c3ccccc3Cl)[nH]n2)cc1 [CBK265880] | 89.9903 |
| COc1nc2ccccc2nc1CCC(=O)NC(C)c1ccccc1 (stereo not shown) [CBK270065] | 88.771 |
| CCN1CCN(Cc2c(C3CCCC3)[nH]c3ncccc23)CC1 [CBK285386] | 75.6665 |
| Nc1ncc(-c2ccc(C(=O)N3CCOCC3)cc2)cc1C(=O)NCCc1ccc(O)cc1 [CBK158577] | 99.3079 |
| CC(C)c1ccc(-c2cncc(NCCCN3CCOCC3)n2)cc1 [CBK065196] | 107.066 |
| FC(F)(F)c1cccc(Nc2cncc(-c3cccs3)n2)c1 [CBK065750] | 104.798 |
| CC(C)(C)c1cc(C(=O)O)[nH]n1 [CBK260874] | 96.1835 |
| COc1ccc2ccccc2c1CN1CCN(C/C=C/c2ccccc2)CC1 [CBK261899] | 77.9012 |
| CCc1nc(CN2CCOC(c3ccc(F)cc3)C2)cs1 (stereo not shown) [CBK305090] | 105.972 |
| CN(C(=O)C1(NC(N)=O)CC1)c1nc2c(s1)CC(c1ccccc1)CC2 (stereo not shown) [CBK306022] | 98.1273 |
| c1ccc(CSc2nnc(-c3ccco3)o2)cc1 [CBK026283] | 125.234 |
